# ± gives the standard deviation of the averaged measurements. The list shows a part of the results.
# Test system: PfAP2-G AP2 domain (GST-tagged)
# Test: gcPBM binding intensity (ln(normalized median fluorescence intensity)); higher = stronger DNA binding
# In short: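 Binding of GST-tagged P. falciparum DNA-binding domains, expressed in E. coli and used at about 25 μg on average, was carried out for 1 h in 1× PBS containing 1% milk, 0.2 mg/ml BSA, 0.5% salmon testes DNA and 0.03% Triton X-100. The target was an Agilent 4 × 180k array of primer-extended double-stranded 36-bp intergenic genomic probes plus negative controls, read with Alexa488 anti-GST antibody at 488 nm. Binding intensity is the highest Masliner-normalised natural-log median intensity across replicate spots of either probe orientation.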
row,Sequence,gcPBM binding intensity (ln)
1,AAAAAATTTTAATATGCATGTAATTTTGCTTTTTCA [TGCATGCA_site1044],9.79 ± 0.14
2,AAATGAATATAAAATATACACACTTATATATTGAAT [CACACA_site202],9.71 ± 0.12
3,AAATTACCCTTGTGTACACATATATTATCTGTATTA [CACACA_site4514],12 ± 1.4
4,ACCTATTTCAAACACACACACACACCCACAAACATA [CACACA_site977],10.4 ± 0.4
5,ACGAATATAGGATGTTTGCACTGTACCAATAAATGA [GTGCAC_site9808],11 ± 0.72
6,TTCTTAATACAAATATGTACATATATATATATATAT [XGTACX_site757],11.1 ± 0.61
7,AATAGAAAAAAAAAATGTACAAAATGTTTATAAAAA [XGTACX_site4635],10.7 ± 0.28
8,TCATTTTAAGGAAAAAGTACAAAATAATATGTTCCT [XGTACX_site1903],11 ± 0.65
9,GATGTGTAAATAAGGATATATAACAATCAACAAAAC [XGTACX_negctrl_site494],10.2 ± 0.11
10,TGAATATGTAAATGCACACCAAAAAAAAAAAAAAAA [CACACA_site3566],9.96 ± 0.58
11,CAATATAAAAGACACACACACAAACATATATTTATA [CACACA_site7697],10.01 ± 0.099
12,TATTGAAAGTGAATTATAACATTAAAAATATATATA [TGCATGCA_negctrl_site566],9.61 ± 0.15
13,ATAATGTAAAATAAATGTACGCAATATATAAAAAAT [XGTACX_site5747],11.5 ± 0.73
14,GAAGGAAATAAATCAACACACATATATTATAGATAT [CACACA_site7095],9.85 ± 0.071
15,TATCTTCATATATGGTGTACAGATTTTTTTTTTTTT [XGTACX_site5545],11.5 ± 0.84
16,ATAAAATTATTATATACATGCAAAATTAATATATTG [TGCATGCA_site507],9.835 ± 0.078
17,TGAATAAATAAACACACACACATATATATATCTGTA [CACACA_site4184],9.74 ± 0.028
18,AAAATAAAAAAAATGAATTAGTTAAATGAAAAATAA [CACACA_negctrl_site1294],9.56 ± 0.25
19,TTTCTTTTTTTGGGCACACAAAATTTTCTCATTTTA [CACACA_site68],10.6 ± 0.14
20,ATTATATAATAATGCATGCACCTTATTTTCATTTCA [GTGCAC_site9922],9.915 ± 0.021
21,TTTTTATTGTTATACTTATATTATTTTATGATTAAA [XGTACX_negctrl_site262],9.87 ± 0.13
22,ATAAAAATCAAAAAAAATACATAATAGTAATAATAA [GTGCAC_negctrl_site481],9.695 ± 0.092

row,Sequence,gcPBM binding intensity (ln)
1,GTTATACATTTGAAAAGTACTCATGATTTTTTTTTT [XGTACX_site8177],11.2 ± 0.7
2,AATATTCAATATAAAGTGCATTATTGTGCCCCTAAT,10.7 ± 0.51
3,AAAATTAAAAAAATATGTACTTATGGGTAACATCAT [XGTACX_site5548],11.3 ± 0.82
4,CTGATATATTATTTATCTGAATATATTAATATGTAT [GTGCAC_negctrl_site82],9.635 ± 0.021
5,AAATAGAAAAAATATACACACACTTATTAAATAAAA [CACACA_site3313],9.945 ± 0.049
6,AAATAATAAAGTATAACACACATATTTATTTATATA [CACACA_site7822],9.695 ± 0.021
7,TATGCAAATTAATAATGTACGAAATATTTATAATTT [XGTACX_site2324],10.7 ± 0.47
8,AAAAGGAACGGACACACACACATATATATATATATA [CACACA_site5894],10.9 ± 0.79
9,TAATATAATCTGAGTGCACACAAATAAATAAACATA [CACACA_site8032],10.4 ± 0.3
10,AGGTTATATATGAACAAAAATAAAATATTCATAGGC [TGCATGCA_negctrl_site46],9.885 ± 0.064
11,AATAAATTAGAAGGATGTACTTTGTTTAATATAGAG [XGTACX_site1943],11 ± 0.57
12,ATATGTAAAATGAAGATACATACATACATACATACA [CACACA_negctrl_site715],10.5 ± 0.26
13,TATTTTATATTATCATGTACAAAAAAAAAGAAAAGA [XGTACX_site5379],10.9 ± 0.43
14,ATAAATAATTAGAATTGTACAAAAATTATATATATG [XGTACX_site5107],10.9 ± 0.56
15,TATATAAAAAGTAATTGTACATATATATATATATAT [XGTACX_site7953],10.9 ± 0.68
16,ATATATTTATATAAATGTACACGTGAATATATAATA [XGTACX_site1166],11.3 ± 0.88
17,TTTATATTCTTTTTTTAACACACAAAAAAAATAAAA [CACACA_site8574],10.2 ± 0.44
18,TCTATTAATGAATATACACACATTATATATATATAT [CACACA_site5410],10.1 ± 0.15
19,ATGTTATAAAATATATGTACATATTTATATAAAATA [XGTACX_site5766],11.3 ± 0.71
20,ATATTATATATATGATGTACTAAATATATTATTATG [XGTACX_site1703],10.9 ± 0.59
21,AATTATACGAAATAAAACTTAATAGACAAAAAATTA [CACACA_negctrl_site1384],9.965 ± 0.021
22,GTAATTTAAATAACAAGTACTAATGTGGATAAGCAG [XGTACX_site1163],11.1 ± 0.56

row,Sequence,gcPBM binding intensity (ln)
1,ACATATGAATATTTTTGTACGTATATTGTTATTCTT [XGTACX_site4720],11.3 ± 0.49
2,AAAAAAAAAAAACACACACACACATACAAAATATAT [CACACA_site1448],9.81 ± 0.11
3,TTTTTTTTTATTATCATGCACACATTTTTTTTTTTT [CACACA_site2254],10 ± 0.14
4,GTATATTTAAATAAAAGTACGTAAAGATATATTTAA [XGTACX_site8087],11.2 ± 0.71
5,ATAATATGCAATATTACACACAATTCATCATTTTTT [CACACA_site7477],9.7 ± 0.18
6,TAGAAGCATCATTTTACACACATGCAAATGTAAACT [CACACA_site6973],10 ± 0.32
7,AACAAAATAAAACACACACACAAATGTACATATATA [CACACA_site2424],11.2 ± 0.57
8,TTTTGCGTAGCAACGAGGTTTTTAAAAATGTAACCA [GTGCAC_negctrl_site691],10.2 ± 0.17
9,ATTTTGTATTGACGCTGTACAAACATTAATATAATA [XGTACX_site2496],10.7 ± 0.4
10,AATAATAAAAAATACGCACACATGTAAACGTATGTT [CACACA_site3336],10.41 ± 0.099
11,GGCGATATAGAACTACGTACTTATACAAATTATAAT [XGTACX_site2307],11.2 ± 0.74
12,ACACATAAATGTATATATATATAAATATATGTATGT [CACACA_negctrl_site1532],9.6 ± 0.11
13,CCTTTTAAGAGTTGCACACGTACAAAAAAAAAAAAA [CACACA_site3492],11.3 ± 1.1
14,TGTATTAATAAAAATACACACATCATATTATATAAA [CACACA_site3534],9.97 ± 0.28
15,TATATATATATATATAAGCTTATAATAAAACAAAAA [XGTACX_negctrl_site568],10.1 ± 0.52
16,ATAGCAATAATGGAAAGTACAAAAAAACTTGTTATA [XGTACX_site8518],10.8 ± 0.38
17,TATATATGTATATGTGTGCACCTTATTTCTTTTATT [GTGCAC_site9513],10.4 ± 0.35
18,TATGTATTATCAAAAAGTACTAAAAAAAAATAATAA [XGTACX_site4703],11.2 ± 0.67
19,TTATAATTTTTGAGCACACACAAGCATATATATATA [CACACA_site1798],10.4 ± 0.45
20,AATCCTTACAGACACACACACACGAATAAATAAAAA [CACACA_site480],10.4 ± 0.42
21,ATAAATGTTATGCATACACACTTTATACCTATTTAA [CACACA_site5967],9.975 ± 0.035
22,TTATAATATATTACAAGTTCATTCATATAATATGTT [CACACA_negctrl_site1695],9.92 ± 0.11

row,Sequence,gcPBM binding intensity (ln)
1,ATCTCTTAAATTTTACGTACTTATTTTATCTTCTTA [XGTACX_site8877],11.2 ± 0.67
2,TGAAAAAAAAAATGCACACGCATACATATAATATGT [CACACA_site641],10.08 ± 0.085
3,AAACATAAATATGAGAGTACAAAAAATATTATGAAT [XGTACX_site151],11 ± 0.6
4,TATTTTTATATATATACACACTTACAGATATATATT [CACACA_site5905],10 ± 0.042
5,AATAAATACATACATACATGCATACATATATCTCAA [TGCATGCA_site1040],10.03 ± 0.021
6,AAAAATAAAATATATATATATATATATATATATATA [CACACA_negctrl_site58],9.82 ± 0.66
7,TATATATATTTTAAATGTACTTATAAATTACCACTT [XGTACX_site5673],11.3 ± 0.8
8,AGAAAGGATATAAGCGTAGCTATATCATAAAAAATG [GTGCAC_negctrl_site332],9.82 ± 0.071
9,AAATAAAATTTTTGTTGTACTTATTTTTAGTATACT [XGTACX_site4254],11.5 ± 0.81
10,AATATTTACAGACATGCGCACACATAAATAAATAAT [CACACA_site8760],10.5 ± 0.29
11,AAAGGGGAGATATGAACACACAAAAAAAAAATATAT [CACACA_site7378],10 ± 0.32
12,GTATATATATATTTATGTACTTACCTACATAATTAT [XGTACX_site4435],11.2 ± 0.73
13,GATATGATGAGATTGATATTCATAAGAGGATTAATG [GTGCAC_negctrl_site515],9.71 ± 0.18
14,TGTATGTATGTATTATTTGTTATTTTAATTTTTTTG [TGCATGCA_negctrl_site256],10.36 ± 0.085
15,TATAATAAAATATGTACACACATACACCCATATATA [CACACA_site4808],11.4 ± 0.88
16,ACAAGTAATTAAGAGTGTACATAACTATAAATCCAA [XGTACX_site5215],11.3 ± 0.79
17,GGACAAGTTAAACGCACACAAATATATACCCCCATA [CACACA_site4996],11.2 ± 0.64
18,AAAAATGATATGAGTTGTACATAAGTAAGAATTATT [XGTACX_site7089],11.2 ± 0.73
19,TAAAAACGATTTTTTGCACACACATAATAAGCAGAA [CACACA_site3870],10.3 ± 0.19
20,TTACCTCTTTGAAATATACACACTAATCATATCAAC [CACACA_site8778],10.06 ± 0.057
21,TTTTTGCTATTCTATTATATATATAATATATTTTAC [CACACA_negctrl_site262],9.915 ± 0.064

# From the supplement of paper PMC11417369
